PubChem BioAssay AID1346428 (National Center for Advancing Translational Sciences (NCATS), 2018)
Several values for one entry are separate records, joined by “and”; a condition that tells them apart may be missing. Identical values can stand only once. In all, about 48,000 compounds went through this assay and about 1,200 (2.5%) were called active. Inconclusive results (about 2%) are left out.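 How the source made its calls: active means activation of at least 60% and not above a set upper limit (about 1 call in 100 departs from these limits); inconclusive means activation of 40% to 60%, or above that upper limit; inactive means activation under 40%.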 The list shows a part of the results.

What follows are compounds tested against Probable G-protein coupled receptor 32 (Homo sapiens) (UniProt O75388) (assay: qHTS for Agonists of Human Resolvin D1 Receptor DRV1). Details: CHO-K1 GPR32 beta-arrestin PathHunter luminescence, 90 min; at 76.9 µM; stronger effect = higher value; zero percent set by DMSO-only wells.
UniProt O75388, sequence (O75388 whole entry, looked up): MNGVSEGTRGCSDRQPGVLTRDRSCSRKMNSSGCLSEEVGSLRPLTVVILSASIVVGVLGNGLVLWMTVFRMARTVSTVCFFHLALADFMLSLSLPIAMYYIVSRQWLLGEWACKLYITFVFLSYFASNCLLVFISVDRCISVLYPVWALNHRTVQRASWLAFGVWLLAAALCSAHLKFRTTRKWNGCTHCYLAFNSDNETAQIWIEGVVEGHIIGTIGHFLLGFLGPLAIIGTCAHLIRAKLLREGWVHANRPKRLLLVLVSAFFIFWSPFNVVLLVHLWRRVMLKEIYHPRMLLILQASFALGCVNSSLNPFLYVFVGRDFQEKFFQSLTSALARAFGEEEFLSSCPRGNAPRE
Method in brief: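 Readings come from a cell-based beta-arrestin complementation format: CHO-K1 GPR32 stable cells (2,500/well) treated 90 min with compounds, then beta-Gal substrate added for 1 h before chemiluminescence imaging.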
Further: 0% is about no effect.

Row | Compound | activation
1 | CCOC(=O)c1cccc(NC(=O)c2cc3c(-c4cccc(OC)c4)nn(C)c3s2)c1 | inactive: -8.3%
2 | Cc1nc2c(c(C)c1CCC(=O)NCc1ccccc1)c(=O)n(C)c(=O)n2C | inactive: 0.522%
3 | COCCCNC(=O)CSc1nc2c(sc3ccccc32)c(=O)n1CCc1ccccc1 | inactive: 7.62%
4 | COc1cc(NC(=O)CSc2nc3ccccc3nc2Cc2ccc(Cl)cc2)cc(OC)c1 | inactive: -21.2%
5 | Cc1cccc(NC(=O)C2CCC(CNS(=O)(=O)c3csc(C(N)=O)c3)CC2)c1C (stereo not drawn) | inactive: 7.23%
6 | Cc1ccc(S(=O)(=O)c2nc(S(C)(=O)=O)sc2N(C)Cc2ccccc2)cc1 | inactive: -12.5%
7 | Cc1nn2c(=O)cc(COc3ccc(/C=C(\C#N)C(=O)Nc4ccc(F)cc4)cc3)nc2s1 | inactive: 0.214%
8 | N#Cc1c(N)n(-c2cccc(Cl)c2)c2nc3ccccc3nc12 | inactive: -5.75%
9 | COc1cccc(Nc2cc(C)nc3nc(-c4ccc(Cl)cc4)nn23)c1 | inactive: 3.24%
10 | CCOC(=O)COc1ccccc1C1C(C(=O)OC)=C(C)NC2=C1C(=O)c1ccccc12 (stereo not drawn) | inactive: -74.6%
11 | O=C(COc1ccccc1Cl)Nc1nnc(S(=O)(=O)N2CCCCCC2)s1 | inactive: 5.44%
12 | O=C(NCCCc1nc2ccccc2n1Cc1c(F)cccc1Cl)C1CCCCC1 | inactive: -1.64%
13 | COc1ccc(NCc2cc3cc4c(cc3n(CC(=O)Nc3cc(C)cc(C)c3)c2=O)OCO4)cc1 | inactive: -34.2%
14 | Cc1nn(C)c2c1c(-c1ccccc1)cc(=O)n2CC(=O)Nc1ccccc1C(F)(F)F | inactive: -7.13%
15 | CCC(C)n1ncn(-c2ccc(N3CCN(c4ccc(OC[C@H]5CO[C@](Cn6cncn6)(c6ccc(Cl)cc6Cl)O5)cc4)CC3)cc2)c1=O (stereo partly drawn) | inactive: 8.83%
16 | Cc1ccc(Cl)cc1NC(=O)Cc1ccc(-n2c(C)nc3cccnc32)cc1 | inactive: 3.03%
17 | CCOc1ccc(-n2c(=O)c3c(C)c(C)sc3n(CC(=O)N(CC)Cc3ccccc3)c2=O)cc1 | inactive: 39.8%
18 | Cc1cn2c(=O)cc(COc3ccc(Cl)cc3)nc2s1 | inactive: -6.08%
19 | CCc1ccc(CNC(=O)C2Cc3cc(S(=O)(=O)N4CCCCCC4)ccc3N2C(C)=O)cc1 (stereo not drawn) | inactive: 8.73%
20 | COc1ccc2c(c1)CC(C(=O)Nc1cc(Cl)ccc1C)CO2 (stereo not drawn) | inactive: -14.4%
21 | CCOc1ccc(CNc2nc3nc(C)c(Cc4ccccc4)c(=O)n3[nH]2)cc1 | inactive: 8.81%
22 | CCCc1nn2c(=O)cc(COC(=O)c3ccccc3NC(=O)c3cccs3)nc2s1 | inactive: -3%
23 | COC(=O)[C@@H]1[C@H]2C[C@H]3c4[nH]c5ccccc5c4CCN3C[C@@H]2CC[C@@H]1O | inactive: -14.3% and inactive: -11.7%
24 | COc1cc(C2c3c(oc4ccccc4c3=O)C(=O)N2c2ccccn2)cc(OC)c1OC (stereo not drawn) | inactive: -14.8%
25 | Cc1ccc(OCC(=O)Nc2ccc(Cl)c(-c3nc4ncccc4o3)c2)c(C)c1 | inactive: -1.77%
26 | COc1cccc(C2CC(=O)N(c3ccc(F)cc3)C3=C2C(=O)OC3)c1OC (stereo not drawn) | inactive: 2.5%
27 | Cc1cccc(NC(=O)C2CCC(CNS(=O)(=O)c3ccc(Br)s3)CC2)c1 (stereo not drawn) | inactive: -5.11%

Row | Compound | activation
28 | Cc1ccc(C)c(C(=O)c2c(N)c(-c3nc(-c4ccc5c(c4)OCO5)cs3)c3ccccn23)c1 | inactive: 22.3%
29 | COc1ccc(C(=O)Nc2ccc(-n3nncc3-c3ccccc3)cc2)cc1OC | inactive: -15.2%
30 | Cc1cccc(N2CCN(C(=O)Cn3ncc4c5ccccc5n(C)c4c3=O)CC2)c1C | inactive: 3.75%
31 | Cc1cc2oc(=O)cc(C)c2c2occ(-c3ccc(Cl)cc3)c12 | inactive: -6.31%
32 | Clc1ccc(C(c2ccccc2)c2c[nH]c3ccccc23)s1 (stereo not drawn) | active: 107%
33 | Cc1ccc2[nH]c3c(=O)n(CC(=O)N4CCCCC4)ncc3c2c1 | inactive: 2.77%
34 | Cc1ccc(C)n1-c1nnc(N2CCCC(C(=O)NCc3cccc(F)c3)C2)s1 (stereo not drawn) | inactive: -1.75%
35 | COc1ccc(OC)c(CNC(=O)C2CCN(c3nc4ccccc4nc3C(F)(F)F)CC2)c1 | inactive: -3.49%
36 | CCc1ccc(S(=O)(=O)c2cn(Cc3ccccc3)c3cc(F)c(F)cc3c2=O)cc1 | inactive: 3.11%
37 | CCc1ccccc1Nc1nc2ccccc2c2nncn12 | inactive: -24%
38 | Cc1ccc(-n2nc(CO)c(C(=O)NCc3cccnc3)n2)cc1 | inactive: -7.93%
39 | Cc1ccc(OCC(=O)Nc2ccc3nc(SCC(=O)N4CCOCC4)sc3c2)cc1 | inactive: 1.32%
40 | Cn1c(CN2CCCCC2)nc2cc(NC(=O)c3ccccc3Cl)ccc21 | inactive: -11.7%
41 | CCCCNC(=O)CCCn1c(=O)c2ccccc2n(Cc2cccc(Cl)c2)c1=O | inactive: -1.11%
42 | CCCCc1c(C)nc2c(-c3ccc(OC)cc3)c(C)[nH]n2c1=O | inactive: 23.2%
43 | CCC(=O)N1CCc2cc(Br)cc(S(=O)(=O)CCC(=O)N3CCN(c4ccccc4F)CC3)c21 | inactive: -8.8%
44 | Cc1ccc(C(C)OC(=O)C2(C)CCC(C(=O)O)C2(C)C)cc1 (stereo not drawn) | inactive: -2.2%
45 | O=C(NC1CCCC1)c1cc(Nc2cccc(C(F)(F)F)c2)nc2ccccc12 | active: 96.3%
46 | COc1ccc2nc(NC(=O)c3nc(SC(C)C)ncc3Cl)sc2c1 | inactive: 10.6%
47 | NC(=O)c1nc(Nc2ccccc2)sc1NC(=O)c1ccccc1Br | inactive: 30.5%
48 | CCOC(=O)c1cccc(NS(=O)(=O)c2ccc(-c3cnc(C4CC4)o3)cc2)c1 | inactive: -4.23%
49 | O=C(C1CCN(S(=O)(=O)Cc2ccccc2)CC1)N1CCN(c2ccccc2)CC1 | inactive: -7.61%
50 | Cc1ccc(S(=O)(=O)C(CNS(=O)(=O)c2ccc(F)c(C(F)(F)F)c2)c2ccco2)cc1 (stereo not drawn) | inactive: -12.7%
51 | CCC(C(=O)NC1CCCCC1)n1c(SCc2cccc(F)c2)nc2ccncc21 (stereo not drawn) | inactive: -1.64%
52 | COc1ccccc1NC(=O)Cn1ccn(-c2cc(C)cc(C)c2)c(=O)c1=O | inactive: -18.6%
53 | CCOc1ccc(CNCc2c(C(=O)O)n(Cc3ccccc3C)c3cc(OC)ccc23)cc1OC | inactive: -5.85%
